# Results reported in patent publication US20260042867A1, “ANTIBODY REPURPOSING” (priority 2022, published 2026).
# For at least one compound, name, drawing or mass did not settle the structure.
# Target: T1, Spike protein RBD domain (SRBD - wt) (Severe acute respiratory syndrome coronavirus 2, UniProt P0DTC2)
# T1 construct: using Spike protein RBD domain as a target
# Type: binding, SARS-COV-2
row,Structure (SMILES),Kd [µM]
1,CC(C)[C@H](NC(=O)[C@H]1c2ccccc2C(=O)N(CCCNC(=O)CNC(=O)Cc2ccc(CNC(=O)[C@H](C)NC(=O)[C@H]3c4ccccc4C(=O)N(CCCNC(=O)[C@H](N)CCC(=O)O)[C@@H]3c3ccc(CCC(=O)O)cc3)cc2)[C@@H]1c1cccc(Oc2ccccc2)c1)C(=O)NCc1ccc(CC(=O)N[C@H](CCC(=O)O)C(=O)NCCCN2C(=O)c3ccccc3[C@H](C(=O)N[C@H](C(=O)NCc3ccc(CC(=O)NCCCN4C(=O)c5ccccc5[C@H](C(=O)N[C@H](C)C(=O)N[C@@H](Cc5ccccc5)C(=O)NCc5ccc(CC(=O)N[C@H](CCCCN)C(=O)NCCCN6C(=O)c7ccccc7[C@H](C(=O)N[C@@H](C)C(=O)NCc7ccc(CC(=O)NCCCN8C(=O)c9ccccc9[C@H](C(=O)N[C@H](C)C(=O)N[C@@H](Cc9ccc(F)cc9)C(=O)NCc9ccc(CC(=O)N[C@H](C)C(=O)NCCCN%10C(=O)c%11ccccc%11[C@H](C(=O)N[C@@H](C)C(=O)NCc%11ccc(CC(=O)N[C@H](C)C(=O)NCCCN%12C(=O)c%13ccccc%13[C@H](C(=O)N[C@@H](CC%13CC%13)C(=O)NCc%13ccc(CC(N)=O)cc%13)[C@H]%12c%12ccc(CCC(=O)O)cc%12)cc%11)[C@H]%10c%10cccc(Oc%11ccccc%11)c%10)cc9)[C@H]8c8ccccc8)cc7)[C@H]6c6ccccc6)cc5)[C@H]4c4ccccc4)cc3)C(C)C)[C@H]2c2cccnc2)cc1 [Technein 16838-89-1],0.036
2,CC(C)[C@H](NC(=O)[C@H]1c2ccccc2C(=O)N(CCCNC(=O)[C@@H](CCCCN)NC(=O)Cc2ccc(CNC(=O)CNC(=O)[C@@H](CCCCN)NC(=O)[C@H]3c4ccccc4C(=O)N(CCCNC(=O)Cc4ccc(CNC(=O)[C@H](CC5CC5)NC(=O)[C@@H](C)NC(=O)[C@H]5c6ccccc6C(=O)N(CCCNC(=O)Cc6ccc(CNC(=O)[C@H](C)NC(=O)[C@H]7c8ccccc8C(=O)N(CCCNC(=O)[C@H](N)CCC(=O)O)[C@@H]7c7ccc(CCC(=O)O)cc7)cc6)[C@@H]5c5cccnc5)cc4)[C@@H]3c3ccccc3)cc2)[C@@H]1c1ccc(CCC(=O)O)cc1)C(=O)NCc1ccc(CC(=O)N[C@H](CCCCN)C(=O)NCCCN2C(=O)c3ccccc3[C@H](C(=O)N[C@@H](C)C(=O)NCc3ccc(CC(=O)NCCCN4C(=O)c5ccccc5[C@H](C(=O)N[C@H](C)C(=O)N[C@@H](Cc5ccc(F)cc5)C(=O)NCc5ccc(CC(=O)N[C@H](C)C(=O)NCCCN6C(=O)c7ccccc7[C@H](C(=O)N[C@@H](C)C(=O)NCc7ccc(CC(=O)N[C@H](C)C(=O)NCCCN8C(=O)c9ccccc9[C@H](C(=O)N[C@@H](CC9CC9)C(=O)NCc9ccc(CC(N)=O)cc9)[C@H]8c8ccc(CCC(=O)O)cc8)cc7)[C@H]6c6cccc(Oc7ccccc7)c6)cc5)[C@H]4c4ccccc4)cc3)[C@H]2c2ccccc2)cc1 [Technein 16838-89-2],0.018
3,C[C@H](NC(=O)[C@@H](CCCCN)NC(=O)[C@H]1c2ccccc2C(=O)N(CCCNC(=O)Cc2ccc(CNC(=O)[C@H](Cc3ccccc3)NC(=O)[C@@H](C)NC(=O)[C@H]3c4ccccc4C(=O)N(CCCNC(=O)Cc4ccc(CNC(=O)[C@H](CC5CC5)NC(=O)[C@@H](CCCCN)NC(=O)[C@H]5c6ccccc6C(=O)N(CCCNC(=O)Cc6ccc(CNC(=O)[C@H](Cc7ccc(F)cc7)NC(=O)[C@H]7c8ccccc8C(=O)N(CCCNC(=O)[C@@H](CCC(=O)O)NC(=O)Cc8ccc(CNC(=O)[C@H](C)NC(=O)[C@H]9c%10ccccc%10C(=O)N(CCCNC(=O)CN)[C@@H]9c9ccccc9)cc8)[C@@H]7c7cccc(Oc8ccccc8)c7)cc6)[C@@H]5c5ccc(CCC(=O)O)cc5)cc4)[C@@H]3c3ccccc3)cc2)[C@@H]1c1ccc(CCC(=O)O)cc1)C(=O)NCc1ccc(CC(=O)N[C@H](C)C(=O)NCCCN2C(=O)c3ccccc3[C@H](C(=O)N[C@@H](CC3CC3)C(=O)NCc3ccc(CC(=O)N[C@H](C)C(=O)NCCCN4C(=O)c5ccccc5[C@H](C(=O)N[C@@H](C)C(=O)NCc5ccc(CC(=O)N[C@H](C)C(=O)NCCCN6C(=O)c7ccccc7[C@H](C(=O)N[C@@H](CC7CC7)C(=O)NCc7ccc(CC(N)=O)cc7)[C@H]6c6ccc(CCC(=O)O)cc6)cc5)[C@H]4c4cccc(Oc5ccccc5)c4)cc3)[C@H]2c2cccc(Oc3ccccc3)c2)cc1 [Technein 16838-89-3],0.24
4,CC(C)[C@H](NC(=O)[C@@H](CCCCN)NC(=O)[C@H]1c2ccccc2C(=O)N(CCCNC(=O)Cc2ccc(CNC(=O)[C@H](Cc3ccccc3)NC(=O)[C@H]3c4ccccc4C(=O)N(CCCNC(=O)CNC(=O)Cc4ccc(CNC(=O)[C@H](C)NC(=O)[C@H]5c6ccccc6C(=O)N(CCCNC(=O)[C@@H](CCCCN)NC(=O)Cc6ccc(CNC(=O)[C@@H](NC(=O)[C@H]7c8ccccc8C(=O)N(CCCNC(=O)[C@@H](CCCCN)NC(=O)Cc8ccc(CNC(=O)[C@@H](NC(=O)[C@H]9c%10ccccc%10C(=O)N(CCCNC(=O)[C@@H](CCC(=O)O)NC(=O)Cc%10ccc(CNC(=O)[C@@H](NC(=O)[C@H]%11c%12ccccc%12C(=O)N(CCCNC(=O)CNC(=O)Cc%12ccc(CNC(=O)[C@H](C)NC(=O)[C@H]%13c%14ccccc%14C(=O)N(CCCNC(=O)CN)[C@@H]%13c%13ccccc%13)cc%12)[C@@H]%11c%11cccc(Oc%12ccccc%12)c%11)C(C)C)cc%10)[C@@H]9c9cccnc9)C(C)C)cc8)[C@@H]7c7ccc(CCC(=O)O)cc7)C(C)C)cc6)[C@@H]5c5ccccc5)cc4)[C@@H]3c3cccnc3)cc2)[C@@H]1c1ccccc1)C(=O)NCc1ccc(CC(=O)N[C@H](C)C(=O)NCCCN2C(=O)c3ccccc3[C@H](C(=O)N[C@@H](CC3CC3)C(=O)NCc3ccc(CC(N)=O)cc3)[C@H]2c2ccc(CCC(=O)O)cc2)cc1 [Technein 16838-89-4],0.123
5,CC(C)[C@H](NC(=O)[C@H]1c2ccccc2C(=O)N(CCCNC(=O)CNC(=O)Cc2ccc(CNC(=O)[C@H](C)NC(=O)[C@H]3c4ccccc4C(=O)N(CCCNC(=O)CN)[C@@H]3c3ccccc3)cc2)[C@@H]1c1cccc(Oc2ccccc2)c1)C(=O)NCc1ccc(CC(=O)N[C@H](CCC(=O)O)C(=O)NCCCN2C(=O)c3ccccc3[C@H](C(=O)N[C@H](C(=O)NCc3ccc(CC(=O)NCCCN4C(=O)c5ccccc5[C@H](C(=O)N[C@H](C)C(=O)N[C@@H](Cc5ccccc5)C(=O)NCc5ccc(CC(=O)NCCCN6C(=O)c7ccccc7[C@H](C(=O)N[C@H](CCCCN)C(=O)N[C@@H](C)C(=O)NCc7ccc(CC(=O)NCCCN8C(=O)c9ccccc9[C@H](C(=O)N[C@H](C)C(=O)N[C@@H](Cc9ccc(F)cc9)C(=O)NCc9ccc(CC(=O)N[C@H](C)C(=O)NCCCN%10C(=O)c%11ccccc%11[C@H](C(=O)NCC(=O)NCc%11ccc(CC(=O)NCCCN%12C(=O)c%13ccccc%13[C@H](C(=O)NCC(=O)N[C@@H](CC%13CC%13)C(=O)NCc%13ccc(CC(N)=O)cc%13)[C@H]%12c%12ccc(O)cc%12)cc%11)[C@H]%10c%10cccc(Oc%11ccccc%11)c%10)cc9)[C@H]8c8ccccc8)cc7)[C@H]6c6ccc(CCC(=O)O)cc6)cc5)[C@H]4c4ccccc4)cc3)C(C)C)[C@H]2c2cccnc2)cc1 [Technein 16838-89-5],0.07
